Data published in PubChem BioAssay AID504845 (National Center for Advancing Translational Sciences (NCATS), 2011).
In all, about 390,000 compounds went through this assay and about 150 (0.038%) were called active. Inconclusive results, whose numbers are uncertain, are shown with a selection of clear calls. The call rests on the fitted dose curve; in most records, active means well fitted inhibition curve with a large enough effect; inconclusive means small, poorly fitted or top-dose-only effect; inactive means no such curve, though single readings can be large or run the other way. Potencies of inconclusive entries are doubtful fits and often do not repeat.

Target: Regulator of G-protein signaling 4 (Homo sapiens) (UniProt P49798)
Assay: Inhibitors of Regulator of G Protein Signaling (RGS) 4: qHTS; further: nearly all actives have a fitted effect of over 75% in size
Settings: Transcreener GDP fluorescence polarization, RGS4-accelerated GTP hydrolysis; series mostly up to 114 µM; activity change, negative = inhibition: at the top concentration
Method in brief: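 MLSMR compounds (23 nl, pin-transferred) preincubated 10 min at room temperature with a 500nM (2x) first reagent, then RGS4 at 900nM (2x) plus Transcreener GDP mix added; fluorescence polarization (620/688 nm) read before and after 90 min at 30 °C.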
On the % scale 0 is the no-effect control and ±100 the full control effect; potency means the concentration at half of the fitted maximal effect; tags describe the fitted curve by direction and shape.

Chain of UniProt P49798 (P49798 whole entry, looked up): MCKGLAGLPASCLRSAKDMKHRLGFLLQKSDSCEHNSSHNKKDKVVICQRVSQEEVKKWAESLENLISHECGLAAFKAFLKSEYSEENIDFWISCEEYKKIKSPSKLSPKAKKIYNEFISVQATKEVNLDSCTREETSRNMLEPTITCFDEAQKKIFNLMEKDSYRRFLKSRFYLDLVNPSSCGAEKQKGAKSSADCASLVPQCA

SMILES	Potency	activity change, negative = inhibition
OCCNc1cnc2ccccc2n1	inconclusive: 50.1 µM [inhibitor, partial curve, poor fit]	–
COc1cc(/C=C(\C#N)C(=O)Nc2nnc(C(F)(F)F)s2)ccc1OCc1ccc(C(F)(F)F)cc1C(F)(F)F	active: 18.9 µM	–
CCOC(=O)CCS(=O)(=O)c1nc(-c2ccccc2)cc(C(F)(F)F)n1	inconclusive: 50.1 µM [inhibitor, partial curve, poor fit]	–
Cc1nc(N2CCN(Cc3ccc4c(c3)OCO4)CC2)c2cc(-c3ccccc3)sc2n1	–	inactive: 0.867%
COc1ccc(NN=Nc2nc3c([nH]2)c(=O)n(C)c(=O)n3C)cc1	inconclusive: 100 µM [inhibitor, single point]	–
N#Cc1c(C(F)(F)F)cc(-c2cccs2)nc1SCc1cccnc1	inconclusive: 17.8 µM [inhibitor, full curve, poor fit]	–
CCOc1ccc2c(c1)[nH]c(=S)n2C	inconclusive: 20 µM [inhibitor, full curve, poor fit]	–
CCOc1ccc(CC(=O)NNC(=S)NC)cc1	–	inactive: -20.6%
CC(=O)N1N=C(c2ccc(C)cc2)CC1c1cn(-c2ccccc2)nc1-c1cccs1 (stereo unspecified)	–	inactive: 15.3%
Cc1ccc(N2C(=O)CS(=O)C(c3ccccc3)C2=O)cc1C (stereo unspecified)	inconclusive: 28.2 µM [inhibitor, partial curve, poor fit]	–
O=C(Nc1nc(-c2ccccn2)cs1)c1cc(Cl)ccc1[N+](=O)[O-]	inconclusive: 31.6 µM [inhibitor, partial curve, poor fit]	–
COc1cc(/C=N/NC(=S)N/N=C/c2cc(OC)c(OC)c(OC)c2)cc(OC)c1OC	inconclusive: 100 µM [inhibitor, partial curve, poor fit]	–
O=C(Nc1cccc(Cl)c1)c1cc(N=Nc2ccc([N+](=O)[O-])cc2Cl)ccc1O	–	inactive: 4.05%
COc1ccc(-c2n[nH]c3c2cnc2cc(OC)c(OC)cc23)cc1	–	inactive: -32.8%
S=c1[nH]nc(-c2ccc3ccccc3n2)n1-c1ccccc1Cl	inconclusive: 79.4 µM [inhibitor, partial curve, poor fit]	–
Cc1cc(C)cc(N(C(=O)CNC(=O)c2ccco2)C(C(=O)NC2CCCC2)c2ccncc2)c1 (stereo unspecified)	inconclusive: 79.4 µM [inhibitor, partial curve, poor fit]	–
COc1ccc(-c2cc3nc4c(c(N5CCC6(CC5)OCCO6)n3n2)CCC4)cc1	–	inactive: 6.59%
Cc1ccc(NC(=O)c2ccc(NCC3CCCO3)c([N+](=O)[O-])c2)cc1Cl (stereo unspecified)	inconclusive: 100 µM [inhibitor, single point]	–
Cc1ccc([N+](=O)[O-])cc1N=Nc1c(-c2ccc([N+](=O)[O-])cc2)[nH]n(C(N)=S)c1=O	inconclusive: 89.1 µM [inhibitor, partial curve, poor fit]	–
Cc1ccc(S(=O)(=O)c2nnn3c2nc(N2CCOCC2)c2sccc23)cc1C	inconclusive: 89.1 µM [inhibitor, single point]	–
N#C/C(=C/c1ccncc1)c1nc2ccccc2s1	inconclusive: 79.4 µM [inhibitor, partial curve, poor fit]	–

SMILES	Potency	activity change, negative = inhibition
CCn1c(C)nc2cc(-c3nnc(-c4c(-c5ccccc5)noc4C)o3)ccc21	–	inactive: -37.1%
Cc1ccc2c(c1)NC(=O)C(CC(=O)NCCCN1CCc3ccccc3C1)O2 (stereo unspecified)	inconclusive: 100 µM [inhibitor, partial curve, poor fit]	–
Cc1cc(O)c(/C=N/Nc2ccc(Cl)cc2)c(=O)o1	inconclusive: 79.4 µM [inhibitor, partial curve, poor fit]	–
CC(C)Oc1ccc(Nc2ncnc3ccccc23)cc1	–	inactive: -13.7%
O=C(Nc1ccc2nc(SCC(=O)N3CCCc4ccccc43)sc2c1)c1ccc(Cl)cc1	inconclusive: 44.7 µM [inhibitor, partial curve, poor fit]	–
N#Cc1cnn2c(-c3cccc([N+](=O)[O-])c3)ccnc12	inconclusive: 79.4 µM [inhibitor, partial curve, poor fit]	–
COc1ccc(S(=O)(=O)N/N=C\c2ccc([N+](=O)[O-])o2)c(OC)c1	–	inactive: -46.3%
Cc1cc(C)cc(N(CC(=O)NCCSCc2ccccc2)S(C)(=O)=O)c1	inconclusive: 50.1 µM [inhibitor, partial curve, poor fit]	–
COc1ccc2nc(Nc3sc4c(c3C(N)=O)CCCC4)sc2c1	inconclusive: 50.1 µM [inhibitor, partial curve, poor fit]	–
O=C(CCl)NC1CCCc2ccccc21 (stereo unspecified)	inconclusive: 17.8 µM [inhibitor, full curve, poor fit]	–
O=C(CCN1CCc2ccccc2C1)c1ccc2c(c1)OCCO2	inconclusive: 50.1 µM [inhibitor, partial curve, poor fit]	–
COC(=O)c1c(NC(=O)COc2cccc(C(F)(F)F)c2)sc2c1CCCC2	inconclusive: 100 µM [inhibitor, partial curve, poor fit]	–
O=C1CCCC/C1=C\Nc1ccc(S(=O)(=O)Nc2cnc3ccccc3n2)cc1	–	inactive: -24.1% [at 56.9 µM]
O=C(O)c1ccc2c3c(ncnc13)-c1ccccc1C2=O	–	inactive: -11.7%
O=C1NCCCC1C(=O)Nc1cccc(C(F)(F)F)c1 (stereo unspecified)	–	inactive: 18.1%
CN(C)c1nc(N(C)C)nc(N(C)C)n1	inconclusive: 21.2 µM [inhibitor, partial curve, poor fit]	–
CCS(=O)(=O)c1cccc(C(=O)Nc2ccc(-c3nc4ccccc4s3)c(O)c2)c1	inconclusive: 25.1 µM [inhibitor, full curve, poor fit]	–
O=C(NC(=S)Nc1c(Cl)ccc2nsnc12)c1ccco1	inconclusive: 89.1 µM [inhibitor, partial curve, poor fit]	–
CCOC(=O)c1c(N)sc(C(=O)OCCOC)c1C	inconclusive: 50.1 µM [inhibitor, partial curve, poor fit]	–
CC(C)NC(=O)NC(=O)CSc1nnc(C(F)(F)F)n1C	inconclusive: 79.4 µM [inhibitor, partial curve, poor fit]	–
